Measured values published in the supplement of paper PMC4604168 (melanoma cell lines).
The other results are listed elsewhere or left out. Many values rest on one well or one pass, so single values are uncertain.

How the values were obtained:
Test in all cases: cell count relative to DMSO control; melanoma cells; higher = more viable cells
Conditions in all cases: library dose: standard library concentration; 72 h
G361 = system: G361
IPC-298 = system: IPC-298
IST-MEL1 = system: IST-MEL1
LB2518-MEL = system: LB2518-MEL
LOXIMVI = system: LOXIMVI
MEL-HO = system: MEL-HO
MZ2-MEL = system: MZ2-MEL
MeWo = system: MeWo
RPMI7951 = system: RPMI7951
RVH-421 = system: RVH-421
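Note: cells treated in 1,536-well plates, then fixed and DAPI-stained, with nuclei counted from automated high-throughput microscope images.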

SMILES	cell count (G361) [%]	cell count (IPC-298) [%]	cell count (IST-MEL1) [%]	cell count (LB2518-MEL) [%]	cell count (LOXIMVI) [%]	cell count (MEL-HO) [%]	cell count (MZ2-MEL) [%]	cell count (MeWo) [%]	cell count (RPMI7951) [%]	cell count (RVH-421) [%]
Cn1c(=O)n(-c2ccc(C(C)(C)C#N)cc2)c2c3cc(-c4cnc5ccccc5c4)ccc3ncc21 + Nc1nc(F)nc2c1ncn2[C@@H]1O[C@H](CO)[C@@H](O)[C@@H]1O [fludarabine] (first compound 0.02 µM, partner dose 1 µM)	57	45.7	62	80.5	76.7	57.5	67.3	70.5	48.3	54.7
Cc1cc(Nc2cc(N3CCN(C)CC3)nc(/C=C/c3ccccc3)n2)n[nH]1 + O=S(=O)(c1ccccc1)N(CC(F)(F)F)c1ccc(C(O)(C(F)(F)F)C(F)(F)F)cc1 [T0901317] (first compound 0.2 µM, partner dose 7 µM)	70.5	80.8	104	69.2	88.3	79.8	102	66.5	85.1	79.2
Cn1c(=O)n(-c2ccc(C(C)(C)C#N)cc2)c2c3cc(-c4cnc5ccccc5c4)ccc3ncc21 + COc1ccc(-c2ccc3c(N4CCOCC4)nc(N4C[C@@H](C)O[C@@H](C)C4)nc3n2)cc1CO [KU0063794] (first compound 0.02 µM, partner dose 0.1 µM)	68.9	64.4	93.1		75.8	69.5		62.8	67.3	77.1
Cn1c(=O)n(-c2ccc(C(C)(C)C#N)cc2)c2c3cc(-c4cnc5ccccc5c4)ccc3ncc21 + Cn1nnc2c(C(N)=O)ncn2c1=O [temozolomide] (first compound 0.02 µM, partner dose 10 µM)	55.6	76.1	73.8	79.5	76.5	79.3	75.5	76.7	72.7	97.3
Cc1cn(-c2cc(NC(=O)c3ccc(C)c(Nc4nccc(-c5cccnc5)n4)c3)cc(C(F)(F)F)c2)cn1 [nilotinib] + O=C(Nc1ccccc1)c1cc([N+](=O)[O-])ccc1Cl [GW9662] (first compound 1 µM, partner dose 10 µM)	59.8	103	93.7	94.3	83.8	84.5	66.7	71	74.3	85.6
COc1ccc(C2=N[C@@H](c3ccc(Cl)cc3)[C@@H](c3ccc(Cl)cc3)N2C(=O)N2CCNC(=O)C2)c(OC(C)C)c1 [Nutlin-3] + O=C(O)c1ccc(-c2c[nH]c3ncc(-c4ccccc4)cc23)cc1C1CCCC1 [GSK650394] (first compound 0.5 µM, partner dose 0.8 µM)	56.6	89.8	74	66.4	72.7	71.3	88.1	93.1	85.6	55.7
CC(C)C[C@H](NC(=O)[C@H](Cc1ccccc1)NC(=O)c1cnccn1)B(O)O [Bortezomib] + CC1(C)NC(=O)N(c2ccc([N+](=O)[O-])c(C(F)(F)F)c2)C1=O [nilutamide] (first compound 0.005 µM, partner dose 5 µM)	0.664	12.1	7.54		10.7	26.9		18	1.27	6.02
Cc1cc(Nc2cc(N3CCN(C)CC3)nc(/C=C/c3ccccc3)n2)n[nH]1 + OCCn1cc(-c2cnc3nnn(Cc4ccc5ncccc5c4)c3n2)cn1 [PF04217903] (first compound 0.2 µM, partner dose 5 µM)	93.4	118	96.1	75.3	97.9	105	120	76.4	76.1	82.1
Cc1cc(Nc2cc(N3CCN(C)CC3)nc(/C=C/c3ccccc3)n2)n[nH]1 + Cn1c(Nc2ccc(C(F)(F)F)cc2)nc2cc(Oc3ccnc(-c4ncc(C(F)(F)F)[nH]4)c3)ccc21 [CHIR265] (first compound 0.2 µM, partner dose 0.4 µM)	38.6	49.5	86.8		80.8	60.6		68	67.8	56.2
CC(C)C[C@H](NC(=O)[C@H](Cc1ccccc1)NC(=O)c1cnccn1)B(O)O [Bortezomib] + Clc1ccc(Nc2nnc(Cc3ccncc3)c3ccccc23)cc1 [vatalanib] (first compound 0.005 µM, partner dose 10 µM)	0.32	4.14	4.3		6.01	21.1		14.4	0.948	2.37
